# Measurements: the supplement of paper PMC8728848
# The other results are listed elsewhere or left out.
# B1: LecRKVI.2 (protein)
# chain: RTTTNFAFRGFNGNQSKIRIEGAAMIKPDGLLRLTDRKSNVTGTAFYHKPVRLLNRNSTNVTIRSFSTSFVFVIIPSSSSNKGFGFTFTLSPTPYRLNAGSAQYLGVFNKENNGDPRNHVFAVEFDTVQGSRDDNTDRIGNDIGLNYNSRTSDLQEPVVYYNNDDHNKKEDFQLESGNPIQALLEYDGATQMLNVTVYPARLGFKPTKPLISQHVPKLLEIVQEEMYVGFTASTGKGQSSAHYVMGWSFSSGGERPIADVLILSELPPPPPNKAKKEGLNS
# Experiments:
# Experiment in all cases: glycan array binding signal (z-score within array); higher = stronger binding
# Conditions in all cases: glycan notation: IUPAC condensed, linker removed
# Neu5Ac(a2-8)Neu5Ac = target: Neu5Ac(a2-8)Neu5Ac
# In short: (§1)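 The binding signal is a Z-score computed within each array. Data were drawn from 3228 arrays in the Consortium for Functional Glycomics database, restricted to those with a known protein sequence. Scores were averaged over arrays of the same protein sequence at different concentrations or buffers, and over linkers, and negative values can be taken as non-binding.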
# [1] = target: Neu5Ac(a2-8)Neu5Ac(a2-3)Gal(b1-3)GalNAc(b1-4)[Neu5Ac(a2-3)]Gal(b1-4)Glc
# In short: as §1
# [2] = target: Neu5Ac(a2-8)Neu5Ac(a2-3)Gal(b1-3)GalNAc(b1-4)[Neu5Ac(a2-8)Neu5Ac(a2-3)]Gal(b1-4)Glc
# In short: as §1
# [3] = target: Neu5Ac(a2-8)Neu5Ac(a2-3)Gal(b1-4)Glc
# In short: as §1
# [4] = target: Neu5Ac(a2-8)Neu5Ac(a2-3)Gal(b1-4)GlcNAc
# In short: as §1
# [5] = target: Neu5Ac(a2-8)Neu5Ac(a2-3)[Gal(b1-3)GalNAc(b1-4)]Gal(b1-4)Glc
# In short: as §1
# [6] = target: Neu5Ac(a2-8)Neu5Ac(a2-3)[GalNAc(b1-4)]Gal(b1-4)Glc
# In short: as §1
# [7] = target: Neu5Ac(a2-8)Neu5Ac(a2-8)Neu5Ac
# In short: as §1
# [8] = target: Neu5Ac(a2-8)Neu5Ac(a2-8)Neu5Ac(a2-3)Gal(b1-4)Glc
# In short: as §1
# [9] = target: Neu5Ac(a2-8)Neu5Ac(a2-8)Neu5Ac(a2-3)[Gal(b1-3)GalNAc(b1-4)]Gal(b1-4)Glc
# In short: as §1
# [10] = target: Neu5Ac(a2-8)Neu5Ac(a2-8)Neu5Ac(a2-3)[GalNAc(b1-4)]Gal(b1-4)Glc
# In short: as §1
# [11] = target: Neu5Ac(a2-8)Neu5Ac(a2-8)Neu5Ac(a2-8)Neu5Ac(a2-3)[GalNAc(b1-4)]Gal(b1-4)Glc
# In short: as §1
# [12] = target: Neu5Ac(a2-8)Neu5Gc(a2-3)Gal(b1-4)GlcNAc
# In short: as §1
# [13] = target: Neu5Ac(b2-6)Gal(b1-4)GlcNAc
# In short: as §1
# Neu5Ac(b2-6)GalNAc = target: Neu5Ac(b2-6)GalNAc
# In short: as §1
# [14] = target: Neu5Ac9Ac(a2-3)Gal(b1-3)GlcNAc
# In short: as §1
# [15] = target: Neu5Ac9Ac(a2-3)Gal(b1-4)GlcNAc
# In short: as §1
# [16] = target: Neu5Ac9Ac(a2-6)Gal(b1-4)GlcNAc
# In short: as §1
# [17] = target: Neu5Gc(a2-3)Gal(b1-3)GlcNAc
# In short: as §1
# [18] = target: Neu5Gc(a2-3)Gal(b1-3)[Fuc(a1-4)]GlcNAc
# In short: as §1
# Neu5Gc(a2-3)Gal(b1-4)Glc = target: Neu5Gc(a2-3)Gal(b1-4)Glc
# In short: as §1
# [19] = target: Neu5Gc(a2-3)Gal(b1-4)GlcNAc
# In short: as §1
# [20] = target: Neu5Gc(a2-3)Gal(b1-4)GlcNAc(b1-3)Gal(b1-4)GlcNAc(b1-2)Man(a1-3)[Neu5Gc(a2-3)Gal(b1-4)GlcNAc(b1-3)Gal(b1-4)GlcNAc(b1-2)Man(a1-6)]Man(b1-4)GlcNAc(b1-4)GlcNAc
# In short: as §1
# [21] = target: Neu5Gc(a2-3)Gal(b1-4)[Fuc(a1-3)]GlcNAc
# In short: as §1
# [22] = target: Neu5Gc(a2-6)Gal(b1-4)GlcNAc
# In short: as §1
# Neu5Gc(a2-6)GalNAc = target: Neu5Gc(a2-6)GalNAc
# In short: as §1
# [23] = target: Neu5Gc(a2-8)Neu5Ac(a2-3)Gal(b1-4)GlcNAc
# In short: as §1
# [24] = target: Neu5Gc(a2-8)Neu5Gc(a2-3)Gal(b1-4)GlcNAc
# In short: as §1
# [25] = target: Neu5Gc(a2-8)Neu5Gc(a2-3)Gal(b1-4)GlcNAc(b1-3)Gal(b1-4)GlcNAc
# In short: as §1
# [26] = target: Neu5Gc(a2-8)Neu5Gc(a2-6)Gal(b1-4)GlcNAc
# In short: as §1
# [27] = target: Neu5Gc(b2-6)Gal(b1-4)GlcNAc
# In short: as §1
binder,measurement,setting,value
B1,glycan array binding signal (z-score),Neu5Ac(a2-8)Neu5Ac,-0.272
same,glycan array binding signal (z-score),[1],-0.35
same,glycan array binding signal (z-score),[2],-0.34
same,glycan array binding signal (z-score),[3],-0.443
same,glycan array binding signal (z-score),[4],-0.452
same,glycan array binding signal (z-score),[5],-0.145
same,glycan array binding signal (z-score),[6],0.917
same,glycan array binding signal (z-score),[7],-0.317
same,glycan array binding signal (z-score),[8],-0.322
same,glycan array binding signal (z-score),[9],-0.237
same,glycan array binding signal (z-score),[10],-0.018
same,glycan array binding signal (z-score),[11],0.069
same,glycan array binding signal (z-score),[12],-0.403
same,glycan array binding signal (z-score),[13],-0.393
same,glycan array binding signal (z-score),Neu5Ac(b2-6)GalNAc,-0.367
same,glycan array binding signal (z-score),[14],0.013
same,glycan array binding signal (z-score),[15],-0.222
same,glycan array binding signal (z-score),[16],-0.349
same,glycan array binding signal (z-score),[17],-0.31
same,glycan array binding signal (z-score),[18],-0.432
same,glycan array binding signal (z-score),Neu5Gc(a2-3)Gal(b1-4)Glc,1.38
same,glycan array binding signal (z-score),[19],-0.244
same,glycan array binding signal (z-score),[20],-0.378
same,glycan array binding signal (z-score),[21],-0.355
same,glycan array binding signal (z-score),[22],-0.356
same,glycan array binding signal (z-score),Neu5Gc(a2-6)GalNAc,-0.305
same,glycan array binding signal (z-score),[23],-0.415
same,glycan array binding signal (z-score),[24],-0.395
same,glycan array binding signal (z-score),[25],-0.436
same,glycan array binding signal (z-score),[26],-0.407
same,glycan array binding signal (z-score),[27],-0.309
